# Experimental data published in publication PMC5892938.
# The other results are listed elsewhere or left out. Construct or isoform of the protein are uncertain.
# Molecular target: GST-SBP-ILF3 (Homo sapiens) (UniProt Q12906)
# Assay: targeted RNA Bind-n-Seq
# Settings: RBNS binding buffer: 25 mM Tris pH 7.5, 150 mM KCl, 3 mM MgCl2, 0.1% Tween, 0.5 mg/mL BSA, 1 mM DTT; 27 nM protein, 750 pM RNA pool; temperature not stated; high values mean tight binding; sequences stand for … in GGGUAAAAGCGAGGUGAA…CGGGACAAGUAUUAUGGG
row,Sequence,binding signal (log2 fold change)
1,GUGUGUGGUGUUGGCGCCUAACACCAUACG [gtspaired],-0.53
2,UUUUUUUUUUGAGACGGAAGCUGUCUUCUA [tttttgagapaired],0.548
3,UUUUUUUUUUGAGACUGGGCCAGUCUUCUG [tttttgagapaired],0.579
4,UUUUUUUUUUGAGACGGUAACCGUCUCCUG [tttttgagapaired],0.496
5,UUUUUUUUUUGAGAGCGGUCCGCUCUCCAG [tttttgagapaired],0.61
6,GUGGUUGGUGUUGGCACCUAACACCAACUA [gtspaired],-0.683
7,GGUGUGUGUGUUGGUACCUAACACAUAUAC [gtspaired],-0.927
8,GUGUGUGGUGUUGGCAUCUAACACCAUACG [gtspaired],-0.547
9,UUUUUUUUUUGAGAGCGGGUCGCUCUCCGG [tttttgagapaired],0.53
10,GGUUGGUGUGUUGGAUCCUAACACAUCAGC [gtspaired],-0.57
11,GUUGGUGGUGUUGGAUUCUAACACCGCCGA [gtspaired],-0.721
12,UUUUUUUUUUGAGAUCGGAACGAUCUUCUA [tttttgagapaired],-0.112
13,UUUUUUUUUUGAGAUGGAGACCAUCUCCUG [tttttgagapaired],0.459
14,UUUUUUUUUUGAGACUGAUGCAGUCUCCAG [tttttgagapaired],0.376
15,UUUUUUUUUUGAGAGGGCCACCCUCUCCAG [tttttgagapaired],0.857
16,GUGGUGUGUGUUGGCCCCUAACACAUACCA [gtspaired],0.0963
17,UUUUUUUUUUGAGAGGGCUGCUCUCUCCAG [tttttgagapaired],0.706
18,GGUUGUGGUGUUGGUCCCUAACACCGCAGC [gtspaired],-0.323
19,UUUUUUUUUUGAGAUGGGACCCAUCUCCGG [tttttgagapaired],0.352
20,UUCUCUUCUCCUCCGCUGGAGGAGGAGGGA [ctspaired],0.1
21,UUUUUUUUUUGAGACCGUUUCGGUCUCCAG [tttttgagapaired],0.119
22,UUUUUUUUUUGAGAUGGAGACCAUUUCCGG [tttttgagapaired],0.442
23,GUGGUGUGUGUUGGCGUCUAACACACACUA [gtspaired],-0.548
24,GGUGGUGGUGUUGGAAUCUAACACCGCUAC [gtspaired],-0.539
25,GUGUGUUGUGUUGGCCUCUAACACAACGCA [gtspaired],-0.411
26,UUUUUUUUUUGAGAUCGAAACGAUCUCCUG [tttttgagapaired],-0.0647

row,Sequence,binding signal (log2 fold change)
1,UUUUUUUUUUGAGAUGGUUUCCAUCUCCUG [tttttgagapaired],0.413
2,GUGUUGUGUGUUGGCCCCUAACACACAGCG [gtspaired],-0.213
3,GGUUGUGGUGUUGGCGUCUAACACCAUAAC [gtspaired],-0.742
4,UUUUUUUUUUGAGACGGAAACUGUCUUCUG [tttttgagapaired],0.817
5,GUGUGUGGUGUUGGAGUCUAACACCACGCG [gtspaired],-0.587
6,UUUUUUUUUUGAGACGGCGACUGUCUCCGG [tttttgagapaired],1.04
7,UUUUUUUUUUGAGACUGUUUCAGUUUCCAG [tttttgagapaired],0.125
8,UUUUUUUUUUGAGACUGCUACAGUUUCCGG [tttttgagapaired],0.64
9,GUGUGGUGUGUUGGUGUCUAACACACUACG [gtspaired],-1.1
10,GUGGUGUGUGUUGGCUCCUAACACAUACCG [gtspaired],-0.603
11,UUUUUUUUUUGAGAGUGCUACAUUCUCCGG [tttttgagapaired],0.19
12,UUUUUUUUUUGAGACGGAUGCCGUCUCCUA [tttttgagapaired],0.347
13,UUUUUUUUUUGAGAUCGAGACGGUCUCCUG [tttttgagapaired],0.565
14,UUUUUUUUUUGAGACCGAUCCGGUUUCCAG [tttttgagapaired],0.382
15,UUUUUUUUUUGAGACGGGGUCUGUCUUCUA [tttttgagapaired],0.821
16,UUUUUUUUUUGAGAUGGACACUAUCUCCUG [tttttgagapaired],0.478
17,UUUUUUUUUUGAGACGGAUUCCGUCUCCUG [tttttgagapaired],0.136
18,UUUUUUUUUUGAGAGGGAACCCCUCUUCUG [tttttgagapaired],0.0462
19,UUUUUUUUUUGAGACCGUAACGGUCUUCUA [tttttgagapaired],0.83
20,GGUUGGUGUGUUGGCAUCUAACACAUCGAC [gtspaired],-0.86
21,UUUUUUUUUUGAGAUGGUGUCUAUCUCCUG [tttttgagapaired],0.864
22,GUGGUUGGUGUUGGUACCUAACACCAGCCG [gtspaired],-0.747
23,GUUGUGUGUGUUGGUCCCUAACACACGCAA [gtspaired],-0.489
24,UUUUUUUUUUGAGAGUGUAACACUCUCCUG [tttttgagapaired],0.424
25,UUUUUUUUUUGAGACGGAGACUGUCUCCUG [tttttgagapaired],0.996
26,GGUGGUUGUGUUGGUCCCUAACACAGCCAC [gtspaired],-0.114

row,Sequence,binding signal (log2 fold change)
1,GUGUGGUGUGUUGGUAUCUAACACAUCGCA [gtspaired],-0.614
2,UUCUCCUCUCCUCCGGGGGAGGGGGGGAGA [ctspaired],-0.351
3,GUGUGUUGUGUUGGCCUCUAACACAGCACG [gtspaired],-0.732
4,UUUUUUUUUUGAGACUGCGACAGUUUCCGG [tttttgagapaired],0.727
5,UUUUUUUUUUGAGACCGUUUCGGUCUUCUA [tttttgagapaired],0.24
6,UUUUUUUUUUGAGAGGGCAACCCUUUCCGG [tttttgagapaired],0.371
7,UUUUUUUUUUGAGAGGGAUACCCUCUCCGG [tttttgagapaired],0.192
8,UUUUUUUUUUGAGAUCGGACCGAUCUCCUA [tttttgagapaired],0.249
9,GUGGUUGGUGUUGGCGCCUAACACCGACUA [gtspaired],-0.461
10,GUUGUGUGUGUUGGUCCCUAACACACACGA [gtspaired],-0.523
11,UUUUUUUUUUGAGACUGUGGCAGUCUCCUG [tttttgagapaired],0.863
12,UUUUUUUUUUGAGACUGCUGCAGUCUUCUA [tttttgagapaired],0.56
13,UUUUUUUUUUGAGAGUGUAACAUUCUCCGG [tttttgagapaired],0.0163
14,GGUGUGUGUGUUGGAUUCUAACACAUACAC [gtspaired],-0.449
15,GUGUGUUGUGUUGGACCCUAACACAGCACA [gtspaired],-0.492
16,UUUUUUUUUUGAGACGGAGCCCGUCUCCUG [tttttgagapaired],0.722
17,GGUUGUUGUGUUGGCUUCUAACACAGCAAC [gtspaired],-0.173
18,UUUUUUUUUUGAGACCGUAGCGGUCUCCUA [tttttgagapaired],0.57
19,GGUUGUGGUGUUGGACUCUAACACCGCGAC [gtspaired],-0.607
20,UUUUUUUUUUGAGAGCGUAUCGUUCUUCUA [tttttgagapaired],0.286
21,GGUGUGUGUGUUGGCACCUAACACACAUAC [gtspaired],-0.0113
22,GGUGGUUGUGUUGGCCCCUAACACAGCCGC [gtspaired],-0.334
23,UUUUUUUUUUGAGAGGGCCGCCCUCUCCUG [tttttgagapaired],1.22
24,UUUUUUUUUUGAGAUGGAUACCAUCUUCUG [tttttgagapaired],0.26
25,GUGUGGUGUGUUGGACUCUAACACAUCGCA [gtspaired],-0.652
26,GGUUGUGGUGUUGGAGCCUAACACCAUAAC [gtspaired],-0.842

row,Sequence,binding signal (log2 fold change)
1,UUCUUCUCUCCUCCACGGGAGGGGGGAAGA [ctspaired],-0.612
2,UUUUUUUUUUGAGAGCGGCACGCUCUUCUG [tttttgagapaired],0.269
3,UUUUUUUUUUGAGACGGGGUCCGUCUUCUG [tttttgagapaired],0.837
4,UUUUUUUUUUGAGAUGGUCUCCAUCUCCUG [tttttgagapaired],0.343
5,UUUUUUUUUUGAGAUCGAUGCGAUCUUCUA [tttttgagapaired],0.274
6,UUUUUUUUUUGAGAGUGAUCCACUCUCCUA [tttttgagapaired],-0.304
7,UUUUUUUUUUGAGACCGCAACGGUUUCCAG [tttttgagapaired],0.377
8,UUUUUUUUUUGAGAGUGAUACACUCUCCUA [tttttgagapaired],-0.0016
9,UUUUUUUUUUGAGACGGACACCGUUUCCAG [tttttgagapaired],0.508
10,GUGGUUGGUGUUGGCGUCUAACACCGACUA [gtspaired],-0.599
11,UUUUUUUUUUGAGACGGAAACCGUCUCCGG [tttttgagapaired],0.379
12,GUGUGGUGUGUUGGUGUCUAACACAUCGCG [gtspaired],-0.832
13,GUGUGGUGUGUUGGUUCCUAACACAUCACG [gtspaired],-0.912
14,UUUUUUUUUUGAGACGGAAUCCGUCUCCUA [tttttgagapaired],0.115
15,UUUUUUUUUUGAGACUGCAGCAGUCUCCUA [tttttgagapaired],0.591
16,UUUUUUUUUUGAGACCGAGUCGGUCUUCUG [tttttgagapaired],0.682
17,UUUUUUUUUUGAGAUCGGGGCGAUCUCCUG [tttttgagapaired],0.631
18,GUGGUUGGUGUUGGUGUCUAACACCAGCCG [gtspaired],-0.306
19,GUGUGUGGUGUUGGAGCCUAACACCGCAUA [gtspaired],-0.507
20,GUGUGUUGUGUUGGAUCCUAACACAGCGCG [gtspaired],-0.688
21,UUUUUUUUUUGAGAGGGAAUCCCUCUCCUA [tttttgagapaired],-0.0224
22,GGUUGGUGUGUUGGCCUCUAACACACUAAC [gtspaired],-0.614
23,GUGUGGUGUGUUGGAGCCUAACACAUCGCG [gtspaired],-0.468
24,UUUUUUUUUUGAGAGGGCAACCCUCUCCAG [tttttgagapaired],0.39
25,UUUUUUUUUUGAGACCGAAUCGGUUUCCGG [tttttgagapaired],0.525
